# In the supplement of paper PMC8728848:
# This is one part of the list.
# B1: BTL (Bryothamnion triquetrum) (protein)
# chain: ADPICGSSGYSCTTPAILTPKSPGSFPSGYSKVIVTGVGGSYSVYIHRPDGFKVYKASEGGCASFGSYSGGGNSEVGKYGSGGTVVAVACK
# What was measured:
# Experiment in all cases: glycan array binding signal (z-score within array); higher = stronger binding
# Details in all cases: glycan notation: IUPAC condensed, linker removed
# [1] = molecular target: Fuc(a1-2)Gal6S(b1-3)GlcNAc
# Procedure, shortened: (§1)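 From the Consortium for Functional Glycomics database, 3228 arrays were curated, keeping only those whose protein sequence was available. Binding is given as a within-array Z-score averaged across arrays sharing a protein sequence and across linkers. Negative Z-scores can be read as non-binding.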
# [2] = molecular target: Fuc(a1-2)Gal6S(b1-3)GlcNAc6S
# Procedure, shortened: as §1
# Fuc(a1-2)Gal6S(b1-4)Glc = molecular target: Fuc(a1-2)Gal6S(b1-4)Glc
# Procedure, shortened: as §1
# [3] = molecular target: Fuc(a1-2)Gal6S(b1-4)Glc6S
# Procedure, shortened: as §1
# Fuc(a1-2)[Gal(a1-3)]Gal = molecular target: Fuc(a1-2)[Gal(a1-3)]Gal
# Procedure, shortened: as §1
# [4] = molecular target: Fuc(a1-2)[Gal(a1-3)]Gal(b1-3)GalNAc
# Procedure, shortened: as §1
# [5] = molecular target: Fuc(a1-2)[Gal(a1-3)]Gal(b1-3)GalNAc(b1-3)Gal(a1-4)Gal(b1-4)Glc
# Procedure, shortened: as §1
# [6] = molecular target: Fuc(a1-2)[Gal(a1-3)]Gal(b1-3)GlcNAc
# Procedure, shortened: as §1
# [7] = molecular target: Fuc(a1-2)[Gal(a1-3)]Gal(b1-3)GlcNAc(b1-2)Man(a1-3)[Fuc(a1-2)[Gal(a1-3)]Gal(b1-3)GlcNAc(b1-2)Man(a1-6)]Man(b1-4)GlcNAc(b1-4)GlcNAc
# Procedure, shortened: as §1
# [8] = molecular target: Fuc(a1-2)[Gal(a1-3)]Gal(b1-3)GlcNAc(b1-2)Man(a1-3)[Fuc(a1-2)[Gal(a1-3)]Gal(b1-3)GlcNAc(b1-2)Man(a1-6)]Man(b1-4)GlcNAc(b1-4)[Fuc(a1-6)]GlcNAc
# Procedure, shortened: as §1
# [9] = molecular target: Fuc(a1-2)[Gal(a1-3)]Gal(b1-3)GlcNAc(b1-3)GalNAc
# Procedure, shortened: as §1
# [10] = molecular target: Fuc(a1-2)[Gal(a1-3)]Gal(b1-3)GlcNAc(b1-6)GalNAc
# Procedure, shortened: as §1
# [11] = molecular target: Fuc(a1-2)[Gal(a1-3)]Gal(b1-4)Glc
# Procedure, shortened: as §1
# [12] = molecular target: Fuc(a1-2)[Gal(a1-3)]Gal(b1-4)GlcNAc
# Procedure, shortened: as §1
# [13] = molecular target: Fuc(a1-2)[Gal(a1-3)]Gal(b1-4)GlcNAc(b1-2)Man
# Procedure, shortened: as §1
# [14] = molecular target: Fuc(a1-2)[Gal(a1-3)]Gal(b1-4)GlcNAc(b1-2)Man(a1-3)[Fuc(a1-2)[Gal(a1-3)]Gal(b1-4)GlcNAc(b1-2)Man(a1-6)]Man(b1-4)GlcNAc(b1-4)GlcNAc
# Procedure, shortened: as §1
# [15] = molecular target: Fuc(a1-2)[Gal(a1-3)]Gal(b1-4)GlcNAc(b1-2)Man(a1-3)[Fuc(a1-2)[Gal(a1-3)]Gal(b1-4)GlcNAc(b1-2)Man(a1-6)]Man(b1-4)GlcNAc(b1-4)[Fuc(a1-6)]GlcNAc
# Procedure, shortened: as §1
# [16] = molecular target: Fuc(a1-2)[Gal(a1-3)]Gal(b1-4)GlcNAc(b1-3)GalNAc
# Procedure, shortened: as §1
# [17] = molecular target: Fuc(a1-2)[Gal(a1-3)]Gal(b1-4)GlcNAc(b1-3)[Fuc(a1-2)[Gal(a1-3)]Gal(b1-4)GlcNAc(b1-6)]GalNAc
# Procedure, shortened: as §1
# [18] = molecular target: Fuc(a1-2)[Gal(a1-3)]Gal(b1-4)GlcNAc(b1-6)GalNAc
# Procedure, shortened: as §1
# [19] = molecular target: Fuc(a1-2)[Gal(a1-3)]Gal(b1-4)[Fuc(a1-3)]Glc
# Procedure, shortened: as §1
# [20] = molecular target: Fuc(a1-2)[Gal(a1-3)]Gal(b1-4)[Fuc(a1-3)]GlcNAc
# Procedure, shortened: as §1
# [21] = molecular target: Fuc(a1-2)[Gal(a1-3)]Gal(b1-4)[Fuc(a1-3)]GlcNAc(b1-3)GalNAc
# Procedure, shortened: as §1
# [22] = molecular target: Fuc(a1-2)[Gal(a1-4)]Gal(b1-4)GlcNAc
# Procedure, shortened: as §1
# [23] = molecular target: Fuc(a1-2)[GalNAc(a1-3)]Gal
# Procedure, shortened: as §1
# [24] = molecular target: Fuc(a1-2)[GalNAc(a1-3)]Gal(b1-3)GalNAc(a1-3)[Fuc(a1-2)]Gal(b1-4)GlcNAc
# Procedure, shortened: as §1
# [25] = molecular target: Fuc(a1-2)[GalNAc(a1-3)]Gal(b1-3)GalNAc(b1-3)Gal(a1-4)Gal(b1-4)Glc
# Procedure, shortened: as §1
# [26] = molecular target: Fuc(a1-2)[GalNAc(a1-3)]Gal(b1-3)GlcNAc
# Procedure, shortened: as §1
# [27] = molecular target: Fuc(a1-2)[GalNAc(a1-3)]Gal(b1-3)GlcNAc(b1-2)Man(a1-3)[Fuc(a1-2)[GalNAc(a1-3)]Gal(b1-3)GlcNAc(b1-2)Man(a1-6)]Man(b1-4)GlcNAc(b1-4)GlcNAc
# Procedure, shortened: as §1
# [28] = molecular target: Fuc(a1-2)[GalNAc(a1-3)]Gal(b1-3)GlcNAc(b1-2)Man(a1-3)[Fuc(a1-2)[GalNAc(a1-3)]Gal(b1-3)GlcNAc(b1-2)Man(a1-6)]Man(b1-4)GlcNAc(b1-4)[Fuc(a1-6)]GlcNAc
# Procedure, shortened: as §1
# [29] = molecular target: Fuc(a1-2)[GalNAc(a1-3)]Gal(b1-3)GlcNAc(b1-3)GalNAc
# Procedure, shortened: as §1
# [30] = molecular target: Fuc(a1-2)[GalNAc(a1-3)]Gal(b1-3)GlcNAc(b1-6)GalNAc
# Procedure, shortened: as §1
# [31] = molecular target: Fuc(a1-2)[GalNAc(a1-3)]Gal(b1-4)Glc
# Procedure, shortened: as §1
# [32] = molecular target: Fuc(a1-2)[GalNAc(a1-3)]Gal(b1-4)GlcNAc
# Procedure, shortened: as §1
# [33] = molecular target: Fuc(a1-2)[GalNAc(a1-3)]Gal(b1-4)GlcNAc(b1-2)Man
# Procedure, shortened: as §1
# [34] = molecular target: Fuc(a1-2)[GalNAc(a1-3)]Gal(b1-4)GlcNAc(b1-2)Man(a1-3)[Fuc(a1-2)[GalNAc(a1-3)]Gal(b1-4)GlcNAc(b1-2)Man(a1-6)]Man(b1-4)GlcNAc(b1-4)GlcNAc
# Procedure, shortened: as §1
# [35] = molecular target: Fuc(a1-2)[GalNAc(a1-3)]Gal(b1-4)GlcNAc(b1-2)Man(a1-3)[Fuc(a1-2)[GalNAc(a1-3)]Gal(b1-4)GlcNAc(b1-2)Man(a1-6)]Man(b1-4)GlcNAc(b1-4)[Fuc(a1-6)]GlcNAc
# Procedure, shortened: as §1
# [36] = molecular target: Fuc(a1-2)[GalNAc(a1-3)]Gal(b1-4)GlcNAc(b1-3)Gal(b1-4)GlcNAc
# Procedure, shortened: as §1
# [37] = molecular target: Fuc(a1-2)[GalNAc(a1-3)]Gal(b1-4)GlcNAc(b1-3)Gal(b1-4)GlcNAc(b1-3)Gal(b1-4)GlcNAc
# Procedure, shortened: as §1
# [38] = molecular target: Fuc(a1-2)[GalNAc(a1-3)]Gal(b1-4)GlcNAc(b1-3)GalNAc
# Procedure, shortened: as §1
# [39] = molecular target: Fuc(a1-2)[GalNAc(a1-3)]Gal(b1-4)GlcNAc(b1-3)[Fuc(a1-2)[GalNAc(a1-3)]Gal(b1-4)GlcNAc(b1-6)]GalNAc
# Procedure, shortened: as §1
# [40] = molecular target: Fuc(a1-2)[GalNAc(a1-3)]Gal(b1-4)GlcNAc(b1-6)GalNAc
# Procedure, shortened: as §1
# [41] = molecular target: Fuc(a1-2)[GalNAc(a1-3)]Gal(b1-4)[Fuc(a1-3)]GlcNAc
# Procedure, shortened: as §1
# [42] = molecular target: Fuc(a1-2)[GalNAc(a1-3)]Gal(b1-4)[Fuc(a1-3)]GlcNAc(b1-3)GalNAc
# Procedure, shortened: as §1
# [43] = molecular target: Fuc(a1-2)[GalNAc(a1-4)]Gal(b1-4)GlcNAc
# Procedure, shortened: as §1
binder,measurement,setting,value
B1,glycan array binding signal (z-score),[1],-0.27
same,glycan array binding signal (z-score),[2],-0.157
same,glycan array binding signal (z-score),Fuc(a1-2)Gal6S(b1-4)Glc,-0.244
same,glycan array binding signal (z-score),[3],-0.275
same,glycan array binding signal (z-score),Fuc(a1-2)[Gal(a1-3)]Gal,-0.215
same,glycan array binding signal (z-score),[4],-0.203
same,glycan array binding signal (z-score),[5],-0.231
same,glycan array binding signal (z-score),[6],-0.304
same,glycan array binding signal (z-score),[7],0.023
same,glycan array binding signal (z-score),[8],3.03
same,glycan array binding signal (z-score),[9],-0.188
same,glycan array binding signal (z-score),[10],-0.206
same,glycan array binding signal (z-score),[11],-0.15
same,glycan array binding signal (z-score),[12],-0.215
same,glycan array binding signal (z-score),[13],-0.25
same,glycan array binding signal (z-score),[14],-0.041
same,glycan array binding signal (z-score),[15],2.46
same,glycan array binding signal (z-score),[16],-0.174
same,glycan array binding signal (z-score),[17],-0.119
same,glycan array binding signal (z-score),[18],-0.041
same,glycan array binding signal (z-score),[19],-0.286
same,glycan array binding signal (z-score),[20],-0.234
same,glycan array binding signal (z-score),[21],-0.188
same,glycan array binding signal (z-score),[22],-0.252
same,glycan array binding signal (z-score),[23],-0.262
same,glycan array binding signal (z-score),[24],-0.242
same,glycan array binding signal (z-score),[25],-0.149
same,glycan array binding signal (z-score),[26],-0.232
same,glycan array binding signal (z-score),[27],-0.139
same,glycan array binding signal (z-score),[28],2.05
same,glycan array binding signal (z-score),[29],-0.18
same,glycan array binding signal (z-score),[30],-0.277
same,glycan array binding signal (z-score),[31],-0.217
same,glycan array binding signal (z-score),[32],-0.268
same,glycan array binding signal (z-score),[33],-0.23
same,glycan array binding signal (z-score),[34],-0.094
same,glycan array binding signal (z-score),[35],1.3
same,glycan array binding signal (z-score),[36],-0.228
same,glycan array binding signal (z-score),[37],-0.221
same,glycan array binding signal (z-score),[38],-0.306
same,glycan array binding signal (z-score),[39],-0.234
same,glycan array binding signal (z-score),[40],-0.281
same,glycan array binding signal (z-score),[41],-0.244
same,glycan array binding signal (z-score),[42],-0.17
same,glycan array binding signal (z-score),[43],-0.202
